{"source": "ChEMBL document CHEMBL4888484", "about": "“Replenishing the malaria drug discovery pipeline: Screening and hit evaluation of the MMV Hit Generation Library 1 (HGL1) against asexual blood stage Plasmodium falciparum ,using a nano luciferase reporter read-out” (2022)", "note": "Hit rate of the full screen: of about 150,000 compounds, about 540 (0.36%) showed an effect of 50% or more. The list shows a part of the results.", "data": [{"system": "Plasmodium falciparum", "experiment": "Primary screen in NF54 nanoGlo assay, in single point, at 2uM, 72h; a lower Z score goes with more inhibition", "type": "functional, Erythrocyte", "details": "timepoint 72 hour", "units": {"% Inhibition": "%"}, "values": [{"smiles": "CNC(=O)[C@@H]1C[C@H](Oc2ccccc2)CN1C1CCN(C(=O)CCc2c[nH]c3ccccc23)CC1", "% Inhibition": -7, "Z score": 0.87}, {"smiles": "COc1ccc(CNC(=O)c2ccc(CN3CCOCC3)cc2)cc1OC", "% Inhibition": -1, "Z score": 0.12}, {"smiles": "CC(C)(C)OC(=O)NCCC[C@H](NCC#N)c1ccccc1", "% Inhibition": -4, "Z score": 0.69}, {"smiles": "O=C(N1CCOCC1)N1CCC[C@H]1c1nc(-c2ccccc2)no1", "% Inhibition": -12, "Z score": 1.37}, {"smiles": "Cn1cc([C@@H](O)CNC(C2CCCC2)C2CCCC2)cn1", "% Inhibition": 16, "Z score": -2.88}, {"smiles": "CCS(=O)(=O)CCNC(=O)c1ccnc(C(C)C)n1", "% Inhibition": -4, "Z score": 0.73}, {"smiles": "CCN(C(=O)c1cnc([C@@H]2CCCO2)s1)c1cccc(F)c1", "% Inhibition": -11, "Z score": 1.08}, {"smiles": "CC(=O)Nc1ccc(C(=O)N2CCCCCC2)o1", "% Inhibition": 0, "Z score": 0.04}, {"smiles": "O=C(c1ccc(F)cc1Cl)N1C2CCC1CC(n1nccn1)C2", "note": "(stereo unspecified)", "% Inhibition": -5, "Z score": 0.72}, {"smiles": "Cc1[nH]nc(NC(=O)c2ccoc2)c1-c1cccc(Br)c1", "% Inhibition": -7, "Z score": 1.03}, {"smiles": "Cc1cc(=O)n(Cc2nc(-c3cccnn3)no2)c2ccccc12", "% Inhibition": -8, "Z score": 1.37}, {"smiles": "CCn1c(=O)n([C@@H]2CCN(CCC(C)C)C2)c2ncccc21", "% Inhibition": -7, "Z score": 0.93}, {"smiles": "Cc1nc(CCCC(=O)N[C@@](C)(CO)C2CC2)cs1", "% Inhibition": -4, "Z score": 0.51}, {"smiles": "CC(=O)c1ccc(S(=O)(=O)N2CCC[C@@H]2Cn2nccn2)cc1", "% Inhibition": -11, "Z score": 2.04}, {"smiles": "OCC[C@H]1CN(C/C=C/c2ccc(F)cc2)CCN1CC1CCCCC1", "% Inhibition": 13, "Z score": -1.64}, {"smiles": "CN(Cc1cn2ccccc2n1)[C@H]1COC[C@@H]1O", "% Inhibition": -2, "Z score": 0.45}, {"smiles": "Cc1cccc(-c2ccc3nc(-c4ccc(F)cc4)c(CN4CCN(S(=O)(=O)c5cccc6cccnc56)CC4)n3c2)c1", "% Inhibition": -7, "Z score": 0.79}, {"smiles": "c1ccc(CN2CC[C@@]3(C2)NCCc2[nH]cnc23)cc1", "% Inhibition": -27, "Z score": 2.38}, {"smiles": "CCc1noc(C)c1CN[C@H](CO)C(C)C", "% Inhibition": -14, "Z score": 1.77}, {"smiles": "Cn1cnc(NC(=O)[C@@H]2CCc3cc(F)ccc32)n1", "% Inhibition": 0, "Z score": 0}, {"smiles": "Cc1nc(C)c(C(=O)[C@H](C#N)c2ccc(C(F)(F)F)cn2)s1", "% Inhibition": -8, "Z score": 1.13}, {"smiles": "CN(C)c1nsc(-c2ccc(C(=O)NCc3nnc4n3CCC4)cc2)n1", "% Inhibition": -15, "Z score": 1.96}, {"smiles": "CC(=O)Nc1ccc(S(=O)(=O)N2C[C@@H]3C[C@H](C2)c2ccc(-c4ccccc4CN4CCOCC4)c(=O)n2C3)cc1", "% Inhibition": 31, "Z score": -3.54}, {"smiles": "CCn1ncc(C(=O)NC[C@H]2CCCC(C)(C)O2)n1", "% Inhibition": -9, "Z score": 1.04}, {"smiles": "O=C(Cn1nnnc1-c1ccccc1F)Nc1ccc(N2CCOCC2)cc1", "% Inhibition": 2, "Z score": -0.22}, {"smiles": "COCCn1ccnc1-c1nc(C(C)C)cs1", "% Inhibition": -6, "Z score": 0.87}, {"smiles": "COc1ccccc1[C@@H]1C=C(C(=O)O)Nc2c(C(=O)Nc3ccccc3)cnn21", "% Inhibition": -11, "Z score": 1.41}, {"smiles": "C[C@@H](CN1CCOCC1)N(C)S(=O)(=O)Cc1ccc(F)cc1C#N", "% Inhibition": -7, "Z score": 0.92}, {"smiles": "COc1ccc([C@H]2CCc3nc(C(=O)N4CCN(c5ccccc5F)CC4)cn3C2)c(OC)c1", "% Inhibition": -6, "Z score": 0.94}, {"smiles": "CCN(C(=O)c1ccc2nc[nH]c2n1)[C@@H](C)Cc1ccc(OC)cc1", "% Inhibition": -7, "Z score": 1.11}, {"smiles": "CN(C)C(=O)CN1CC[C@H](NC(=O)c2cccc(C(F)(F)F)c2)[C@@H](O)C1", "% Inhibition": -3, "Z score": 0.53}, {"smiles": "CC(Oc1cccc2ccccc12)C(=O)NC1CCCC(C(N)=O)C1", "note": "(stereo unspecified)", "% Inhibition": -17, "Z score": 1.51}, {"smiles": "COC(=O)c1nc(NCC2CCCOC2C(C)C)sc1C", "note": "(stereo unspecified)", "% Inhibition": 6, "Z score": -1.09}, {"smiles": "CC1CCN(c2ccc(N3CCN(C(=O)c4ccco4)CC3)nn2)CC1", "% Inhibition": -11, "Z score": 1.76}, {"smiles": "OCc1ccccc1NCc1cnc2ccc(Br)cn12", "% Inhibition": -12, "Z score": 1.39}, {"smiles": "COc1ccc(-c2ccc3nc[nH]c3c2)c(C)c1", "% Inhibition": -14, "Z score": 2.77}, {"smiles": "COc1ccc2[nH]c(-c3nnc(-c4ccccc4F)s3)cc2c1", "% Inhibition": -2, "Z score": 0.27}, {"smiles": "CCCc1cc(NCCc2n[nH]c(=O)[nH]2)nc(C)n1", "% Inhibition": -7, "Z score": 1.06}, {"smiles": "Cc1cccc(OCc2nc(C(=O)N3CCOCC3)cs2)c1C", "% Inhibition": 16, "Z score": -2.5}, {"smiles": "COc1cccc2c(C(=O)N3CC(O)(C(F)F)C3)n[nH]c12", "% Inhibition": -24, "Z score": 3.16}, {"smiles": "Cc1nc(-c2ccccc2)nc2c1[C@@H]1[C@H](C2)C1(C)C", "% Inhibition": -2, "Z score": 0.31}, {"smiles": "COc1ccc(-n2nc(C)c3sc(N4CCN(C(=O)c5ccc(C)c(F)c5)CC4)nc32)cc1", "% Inhibition": -7, "Z score": 0.79}, {"smiles": "COC[C@H]1CCCCN(C(=O)c2ccc(C3CCOCC3)cc2)C1", "% Inhibition": 13, "Z score": -2.56}, {"smiles": "Oc1ccc2c(c1)CC[C@H](NCc1ccns1)C2", "% Inhibition": -4, "Z score": 0.37}, {"smiles": "CC(C)c1cc(CN2CCC(n3nccc3NC(=O)c3cccnc3)CC2)n[nH]1", "% Inhibition": 5, "Z score": -0.66}, {"smiles": "C[C@]1(c2nc(-c3cccc4ccccc34)no2)CCNC(=O)C1", "% Inhibition": -7, "Z score": 1.33}, {"smiles": "CCN(Cc1cccc2[nH]ccc12)[C@H]1CCOC(C)(C)C1", "% Inhibition": -7, "Z score": 1.38}, {"smiles": "CCN(C)C(=O)NCC(C)(C)c1ccccc1Br", "% Inhibition": 1, "Z score": -0.24}, {"smiles": "Cn1cc(C(=O)N2CC[C@H]3[C@H](CCC(=O)N3CCC3=CCCCC3)C2)cn1", "% Inhibition": -15, "Z score": 1.89}, {"smiles": "O=C1N(C2CCCCC2)C(c2ccccc2)=N[C@@]1(Nc1ncccn1)C(F)(F)F", "% Inhibition": -1, "Z score": 0.2}, {"smiles": "CCn1cc(OCc2nc([C@H](C)OC)no2)cn1", "% Inhibition": -7, "Z score": 1}, {"smiles": "Cc1onc(-c2ccccc2Cl)c1C(=O)Nc1ccc2c(c1)N(C)C(=O)C(C)(C)CO2", "% Inhibition": 0, "Z score": 0.03}, {"smiles": "O=C(NCc1ccccc1F)C1Cc2cc(C(F)(F)F)ccc2N2CCN(c3ccccc3)CC12", "note": "(stereo unspecified)", "% Inhibition": -7, "Z score": 0.9}]}]}
